Variants at the floor of the assay are shown more often than the library holds them.
B1: TPR 5TU (parent)
chain: GGAUCUUCUCGAUCUAACAAAAAAGACAAAUCUGCCACAAAGCUUGAGAGCAUCUUCGGAUGCAGAGGCGGCAGCCUUCGGUGGCGCGAUAGCGCCAACGUUCUCAACUAUGACACGCAAAACGCGUGCUCCGUUGAAUGGAGUUUAUCAUG

Variants of: B1
Assay: polymerase ribozyme fitness, log enrichment relative to wild type (log ratio); higher = more active; in vitro selection for triplet polymerase activity
Summary of the method: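 Only genotypes with ≥10 input reads and ≥1 read per output were kept after Illumina sequencing of input and output libraries. These libraries were PCR-built, transcribed mutants of each subunit of a heterodimeric triplet polymerase ribozyme, each put through one triplicate in vitro selection round with frozen incubation at −7 °C, gel excision of extended constructs, streptavidin-bead capture and RT-PCR. Fitness is a logarithmic ratio of genotype enrichment to wild-type enrichment, from inverse-variance-weighted replicate averages, with the logarithm in base 2.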

Row | Variant | polymerase ribozyme fitness (log ratio)
1 | U9G C93U C99G G100C U109C | ≤ -4.2
2 | U9G C96U A97G C103G A115U U127A | ≤ -4.2
3 | U9G G11U A17C A49C A60G C99A U148G | ≤ -4.2
4 | U9G G11U A19U A23G A60C G74U G84U A98U U135A | ≤ -4.2
5 | U9G G11U U44A A91C C96G A119C | ≤ -4.2
6 | U9G G25C C27U C35U U102A A147C | ≤ -4.2
7 | U9G G42A C57A G92U | ≤ -4.2
8 | U9G G48U A49C C51A C72G U82G G88U U144G U151C | ≤ -4.2
9 | U9G G50A A64G G83C | ≤ -4.2
10 | U9G G50C C93U G141C | ≤ -4.2
11 | U9G G58A C75U G83U C95A C131A | ≤ -4.2
12 | U9G G59C G92C A107G A115G | ≤ -4.2
13 | U9G G62C G74A C93U A138C | ≤ -4.2
14 | U9G G70A U82C | ≤ -4.2
15 | U9G G70C C87U A119G G124A G141U | ≤ -4.2
16 | U9G G71A G81C U109C C129G G143A U145C | ≤ -4.2
17 | U9G G74A A91G C93U G141U | ≤ -4.2
18 | U9G G81C C87A A138C | ≤ -4.2
19 | U9G G81U G88A A97G U148G | ≤ -4.2
20 | U9G G84A G117C C129U | ≤ -4.2
21 | U9G G86C | ≤ -4.2

Row | Variant | polymerase ribozyme fitness (log ratio)
22 | U9G U13G A19U G50C C93A A98C A120C | ≤ -4.2
23 | U9G U13G A22C A28U A41C C76U G92A U148A | ≤ -4.2
24 | U9G U15C A19U C35G A113U C132U | ≤ -4.2
25 | U9G U31C A40G G50A G83A G86U G133C A142U G152U | ≤ -4.2
26 | U9G U33A A41U C54U A66C G83A U102G C103G C123A C125A | ≤ -4.2
27 | U9G U33A C36A C63U C79G C118A U135A | ≤ -4.2
28 | U9G U33A G50A | -4.2
29 | U9G U33G G86A C103G | ≤ -4.2
30 | U9G U44A | ≤ -4.2
31 | U9G U44G G50A C76A G83A C87U A106G | ≤ -4.2
32 | U9G U44G G50A G141U U146G G152A | ≤ -4.2
33 | U9G U44G G50A U82C C95U U139G | ≤ -4.2
34 | U9G U53A G70C G86C A122U C125U | ≤ -4.2
35 | U9G U53A G84C A115G | ≤ -4.2
36 | U9G U55A C95U U104G U134A U139C U151G | ≤ -4.2
37 | U9G U55A C96G C116A | -4.14
38 | U9G U55C C69G C85A A142C | ≤ -4.2
39 | U9G U55G G68C C87A C99U A106G C114G C116U A121U | ≤ -4.2
40 | U9G U56G U90G A119U G141U | ≤ -4.2
41 | C10A | -2.83
42 | C10A A12C C105G | ≤ -4.2

Row | Variant | polymerase ribozyme fitness (log ratio)
43 | C10A A12C G92A C116G | ≤ -4.2
44 | C10A A12C G92A C116G C149G | ≤ -4.2
45 | C10A A12G A17U C32A C96U A110U C116U A147C | ≤ -4.2
46 | C10A A12G A19C C85U C118U A119U A121G | ≤ -4.2
47 | C10A A12G A60G C93A | ≤ -4.2
48 | C10A A12U U13G G58U C76A G92U C123A | ≤ -4.2
49 | C10A A12U U45A G58U C85U | ≤ -4.2
50 | C10A A12U U77A C79U G80C C85A G117U C118G U127G G152A | ≤ -4.2
51 | C10A A16C A19U A22U A29U C54U G58C C75A U78A A91C C103U C105U | ≤ -4.2
52 | C10A A16C C63U C87U C118U | ≤ -4.2
53 | C10A A16U C36U C75A C96U | ≤ -4.2
54 | C10A A16U G48U G80U C87A A147C | ≤ -4.2
55 | C10A A17C A39C G58A C85A C95A A142C | ≤ -4.2
56 | C10A A17C A41G C54G U55A C85U C95U U104G G126U A138G G152U | ≤ -4.2
57 | C10A A17C G34A A91C U102G G140U | -3.67
58 | C10A A17G A22U A24C U44A U53A C79A C87U C93A C95U A97C | ≤ -4.2
59 | C10A A17G A30U A37G A41U G86A G141U U144A | ≤ -4.2
60 | C10A A17G C38U C87U C103G C116G C149G | ≤ -4.2
61 | C10A A19G G88U C114G C132A | ≤ -4.2
62 | C10A A19U A22G U77G G83C | ≤ -4.2
63 | C10A A20C A113C | ≤ -4.2

Row | Variant | polymerase ribozyme fitness (log ratio)
64 | C10A A20C C35A A41U G59C C96G C123U | ≤ -4.2
65 | C10A A20G A97G A115G C131G G143C | ≤ -4.2
66 | C10A A20U G62U | ≤ -4.2
67 | C10A A21C C36U U61A G92A C95U U101G | ≤ -4.2
68 | C10A A21C C114U A119U | ≤ -4.2
69 | C10A A21C G34A G68U U77C G92A U127C U135G | ≤ -4.2
70 | C10A A21U A40U G83A C125A | ≤ -4.2
71 | C10A A21U C85U C87A C105U A106U C132U | ≤ -4.2
72 | C10A A21U U77G G88A U90G C95G | ≤ -4.2
73 | C10A A22U A39U G48U C85U | ≤ -4.2
74 | C10A A23C U90C A97U U139G | ≤ -4.2
75 | C10A A23G A28U C54U C87U C105U C149G | ≤ -4.2
76 | C10A A24C C57A C93A C95U C103G | ≤ -4.2
77 | C10A A26U A52C C54U A66G A89G C95U | ≤ -4.2
78 | C10A A28G A40G A41C U82A U139G | ≤ -4.2
79 | C10A A29U C93G | ≤ -4.2
80 | C10A A29U G34A A120G C132G A147C | ≤ -4.2
81 | C10A A30U A49C U77C C87U G152U | ≤ -4.2
82 | C10A A30U G48U C54U G92U G140A | ≤ -4.2
83 | C10A A30U G50C C85G C87U G100A U144A U146C | ≤ -4.2

Source: the RNAGym collection of RNA variant scans (doi:10.1073/pnas.2313332121)
